Reference: publication PMC6919601, “Identification of Plasmodium dipeptidyl aminopeptidase allosteric inhibitors by high throughput screening” (PLoS ONE, 2019)
The campaign covered roughly 110,000 compounds. About 230 (0.21%) showed an effect of 50% or more. Some of the results follow.

What follows are molecules tested against DPAP1 (Plasmodium falciparum, UniProt Q8IIJ9) (assay: primary screen, percent inhibition; read by cleavage of a fluorogenic dipeptide substrate; higher = more effect of the substance).
Parameters: species or system P. falciparum D10 trophozoite lysates; single well
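Further: 30 min substrate incubation versus DMSO and 10 µM JCP410 controls.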

DPAP1, sequence (Q8IIJ9 whole entry, looked up): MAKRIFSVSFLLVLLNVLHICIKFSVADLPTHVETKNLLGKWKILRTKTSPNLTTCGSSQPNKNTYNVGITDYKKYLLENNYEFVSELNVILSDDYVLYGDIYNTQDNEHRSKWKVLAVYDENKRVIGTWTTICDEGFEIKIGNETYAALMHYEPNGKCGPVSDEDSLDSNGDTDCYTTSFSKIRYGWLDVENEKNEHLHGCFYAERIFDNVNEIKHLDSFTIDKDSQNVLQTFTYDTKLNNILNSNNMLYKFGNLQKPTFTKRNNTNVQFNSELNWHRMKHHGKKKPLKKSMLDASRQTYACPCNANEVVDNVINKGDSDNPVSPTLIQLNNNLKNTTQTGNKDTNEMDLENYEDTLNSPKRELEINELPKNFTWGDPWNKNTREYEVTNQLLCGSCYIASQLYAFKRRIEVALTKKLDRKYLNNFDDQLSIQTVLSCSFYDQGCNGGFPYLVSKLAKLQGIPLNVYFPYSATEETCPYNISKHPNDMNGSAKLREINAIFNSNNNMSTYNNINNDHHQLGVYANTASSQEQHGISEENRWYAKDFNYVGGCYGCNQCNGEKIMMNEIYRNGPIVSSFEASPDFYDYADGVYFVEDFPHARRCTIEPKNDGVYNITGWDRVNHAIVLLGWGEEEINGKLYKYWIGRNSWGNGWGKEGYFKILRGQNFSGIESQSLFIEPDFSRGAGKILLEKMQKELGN

Structure (SMILES) | % Inhibition @ 10 uM
COc1ccc(-c2cc(C(F)(F)F)n3ncnc3n2)cc1 | 1.97%
Cc1cc(O)c(C2=Nc3ccccc3SC(c3ccccc3)C2)c(=O)o1 (stereo not drawn) | 2.94%
O=C(NCc1ccccc1)C1CCN(S(=O)(=O)c2ccc(Cl)cc2)CC1 | -3.26%
Cc1cccc(OCC(=O)Nc2ccc(C)c(F)c2)c1 | 4.03%
COc1cc(CN2CCN(Cc3ccc(F)cc3)CC2)cc(OC)c1OC | -3.13%
CSc1ccc(S(=O)(=O)N(CC(=O)NCC2CCCO2)c2ccc(C)cc2)cc1 (stereo not drawn) | 3.46%
COC(=O)c1cccc(NC(=O)CC(=O)c2ccccc2)c1 | -4.58%
O=C(O)CCC(=O)Nc1cccc(-c2cn3ccsc3n2)c1 | -2.77%
COc1ccc(S(=O)(=O)N2CCN(c3ccc(F)cc3)CC2)cc1Br | -3.37%
Cc1ccc2c(c1)c1c(n2CC(O)CO)C(=O)CCC1 (stereo not drawn) | 0.847%
Cc1ccc(C(=O)N2CCN(Cc3ccccc3)CC2)cc1C | 0.361%
Cc1c(C(c2ccc(C(=O)O)cc2)c2c(C)n(C)n(-c3ccccc3)c2=O)c(=O)n(-c2ccccc2)n1C | -8.37%
COc1cccc2c(C)cc(NC3CCCC3)nc12 | 1.54%
CCOc1ccccc1N1CCN(S(=O)(=O)c2ccccc2)CC1 | -0.318%
CC(C)(C)c1ccc(C(CC(=O)O)NC(=O)c2ccc(F)cc2)cc1 (stereo not drawn) | -4.49%
CS(=O)(=O)NCc1ccc(C(=O)NC2CCCCC2)cc1 | -6.42%
CC1CCCCN1CCNC(=O)c1ccc2nc(N3CCCCC3)sc2c1 (stereo not drawn) | 4.22%
Cc1noc(C(=O)Nc2sc3c(c2C(N)=O)CCCC3)c1Cl | -0.0115%
O=C1CC(c2ccc3c(c2)OCO3)Sc2nc3ccccc3n21 (stereo not drawn) | 10.6%
CC1CCC(NC(=O)c2ccccc2C(=O)O)CC1 (stereo not drawn) | -0.519%
O=C1S/C(=C\c2ccc3c(c2)OCO3)C(=O)N1CN1CCCC1 | -1.37%
COc1cc(CN2CCN(C(=O)c3cccc(F)c3)CC2)cc(OC)c1O | -4.69%
c1ccc2c(CN3CCCCCC3)c[nH]c2c1 | 3.1%
Nc1ccc2nc(SCC(=O)N3CCCC3)sc2c1 | -4.03%
O=C(Nc1nc(-c2ccc(F)c(F)c2)cs1)c1ccccc1 | 1.17%
CNC(=O)CN(c1ccc(C)cc1)S(=O)(=O)c1ccc(SC)cc1 | -1.37%

Structure (SMILES) | % Inhibition @ 10 uM
Cc1c(C(=O)NC2CCCCC2C)oc2ccc3c(c12)C(=O)CC(C)(C)O3 (stereo not drawn) | -3.34%
CCN(CC)C(=O)Cn1cc(SCC(=O)NC)c2ccccc21 | 1.93%
CC(=O)c1ccc(NC(=O)c2cncc(Br)c2)cc1 | -0.884%
COc1ccc(NC(=O)CCCC(=O)O)cc1 | -7.67%
CN(C(=O)c1ccc(Cl)cc1Cl)c1ccccc1 | 0.135%
O=C(COc1ccc(Cl)cc1Cl)NC1CCCC1 | -2.6%
CCOC(=O)c1cc(S(=O)(=O)NC2CCN(Cc3ccccc3)CC2)cn1C | -6.83%
COc1ccc2cc(Br)ccc2c1CC(=O)Nc1ccncc1 | -0.25%
COc1cc(CN2CCN(c3ccc(Cl)cc3)CC2)cc(OC)c1OC | -3.69%
O=C(Cc1ccccc1)N1CCN(Cc2ccccc2C(F)(F)F)CC1 | 3.47%
Cc1cc(=O)n(C(C)C(=O)N2CCC3(CC2)OCCO3)c2c1c(C)nn2-c1ccccc1 (stereo not drawn) | -1.74%
CC(C)OCCCNC(=O)c1cc2c(s1)CS(=O)(=O)C2 | -1.69%
N#CC1=C(SCC(N)=O)N=C2C(=C(O)c3ccccc32)C1c1ccc(Cl)cc1 (stereo not drawn) | 1.35%
CC(C)c1nc2ccccc2n1CCCOc1ccccc1 | 2.73%
CSc1ncc(C(=O)O)c(N[C@@H](C)c2ccccc2)n1 | -3.25%
COc1cc2c(cc1OC)CN(Cc1ccc(SC)cc1)CC2 | -2.81%
CCCCOn1c(C)c(C(C)=O)c2c3no[n+]([O-])c3ccc21 | 0.983%
CCC(C)NC(=O)C1CCC(=O)N1Cc1ccc(F)cc1 (stereo not drawn) | -1.79%
CC(C)N(CCNC(=O)C1CCCN(c2ncnc3c2nc2n3CCCCC2)C1)Cc1ccccc1 (stereo not drawn) | 6.14%
COc1ccc(C2NCCc3[nH]cnc32)cc1 (stereo not drawn) | 2.4%
Cc1[nH]c2ccccc2c1C1=CCNCC1 | -8.68%
CN(C)Cc1ccccc1Sc1ccccc1 | 2.32%
O=C(O)c1ccccc1C(=O)Nc1cc([N+](=O)[O-])ccc1F | -0.446%
Cc1ccc(-n2nc3c(C)nn(CC(=O)NCc4ccccc4)c(=O)c3c2C)c(C)c1 | 1.63%
COc1ccc(N(CC(=O)Nc2cccc(C(F)(F)F)c2)S(=O)(=O)c2ccccc2)cc1OC | 1.64%
COc1cccc(-c2nn(C)c3sc(C(=O)NC(C)c4ccc5c(c4)OCCO5)cc23)c1 (stereo not drawn) | 1.23%

Structure (SMILES) | % Inhibition @ 10 uM
CCOC(=O)N1CCN(C2CC(=O)N(c3ccc(OC)cc3)C2=O)CC1 (stereo not drawn) | 1.82%
COc1ccc(Br)cc1/C=C1\N=C(c2ccco2)OC1=O | 2.14%
Cn1cc(CNC(=O)CC23CC4CC(CC(C4)C2)C3)cn1 | -5.35%
Cc1ccc(CNc2nc3ccc(C)cc3n3cnnc23)cc1 | 4.58%
O=C(Cn1cnc2c(nnn2Cc2ccc(F)cc2)c1=O)NCC1CCCO1 (stereo not drawn) | -0.431%
C=CCn1c(SCC(=O)N2CCCC2)nc2scc(-c3ccc(C)o3)c2c1=O | 0.674%
COc1cccc(N(CC(=O)Nc2ccccc2C)S(=O)(=O)c2ccc(C)cc2)c1 | -10.2%
CCC(C)NC(=O)CN(C)S(=O)(=O)c1ccc2nc(C)sc2c1 (stereo not drawn) | 1.15%
COc1cc(-c2nc(O)c3c(n2)Oc2c(C)cccc2C3)cc(OC)c1OC | -1.06%
CCC(=O)c1ccc(OCCN2CCCCC2)cc1 | -3.67%
Nc1nc(-c2ccc(O)c(O)c2)cs1 | -0.294%
Cc1ccc(C(=O)N(C)Cc2ccccc2)cc1 | -2.12%
Cc1cccc2sc(N(CCCN(C)C)C(=O)CCc3ccccc3)nc12 | 3.72%
CC(C)Oc1ccc(-c2cc(C(=O)Nc3ccncc3)c3ccccc3n2)cc1 | 0.214%
CCN(CCN(C)C)CC(C)CCC=C(C)C (stereo not drawn) | -5.65%
CCSc1nnc(NC(=O)c2cccn(OCc3cccc(C)c3)c2=O)s1 | -7.18%
O=C(O)c1ccccc1C(=O)NC1CCCc2ccccc21 (stereo not drawn) | -4.29%
COc1cccc(OCCc2c(C)n[nH]c2C)c1 | 0.24%
Cc1ccc(C2C(C(=O)c3ccc4c(c3)OCCO4)=C(O)C(=O)N2CCCn2ccnc2)cc1 (stereo not drawn) | -2.84%
OC(CNCCc1ccccc1)COCCCN1CCOCC1 (stereo not drawn) | -3.85%
O=C(NCCc1ccccc1Cl)c1nc(O)c2nnn(Cc3ccccc3)c2n1 | -1.82%
COc1ccc(N2CCN(C(=O)CN(C)S(=O)(=O)c3ccc(C)cc3)CC2)cc1 | -5.35%
Cc1cc(C)c(C)c(C2C(C#N)=C(N)Oc3[nH]nc(C)c32)c1C (stereo not drawn) | 2.42%
COc1ccc(OC)c(C2CCN(S(=O)(=O)c3cc(-c4onc(C)c4C)ccc3OC)C2)c1 (stereo not drawn) | 0.359%
CN1CCN(C(=O)COc2ccc(Cl)cc2)CC1 | -4.02%
COc1ccc(CCNC(=O)c2ccc3snnc3c2)c(OC)c1 | 3.24%

Structure (SMILES) | % Inhibition @ 10 uM
OC1=C2C(=Nc3ncnn3C2c2ccc(OC(F)F)cc2)CCC1 (stereo not drawn) | -1.62%
Cc1cc(C)nc(NS(=O)(=O)c2ccc(NC(=O)c3ccc(F)c(F)c3)cc2)n1 | 7.4%
CC(=O)c1coc2ccc3ccccc3c2c1=O | -2.83%
COc1ccc(OC)c(C(=O)c2oc3ccc(Br)cc3c2NC(C)=O)c1 | 2.69%
CCC1CCc2c(sc(N)c2C(=O)OC)C1 (stereo not drawn) | 7.56%
Cc1cc(C)c(C#N)c(SCC(=O)Nc2nonc2-n2cccc2)n1 | 1.32%
CC1CCN(S(=O)(=O)c2ccc3ncc(C(=O)N4CCCCCC4)c(O)c3c2)CC1 | 1.16%
CCN(CC)CCCNC(=O)C1CCN(c2cc(C)nc3c(-c4ccc(Cl)cc4)c(C)nn23)CC1 | -0.138%
Cc1c(C(=O)OC2CCCC2C)[nH]c2c1C(=O)CCC2 (stereo not drawn) | 1.76%
Cc1nc2nc(-c3ccccc3)cn2nc1C | 1.42%
COC1(c2ccc(C)cc2)C(=O)C(c2ccccc2)=C1OC(C)C (stereo not drawn) | -1.22%
N#CCNC(=O)C(Cc1cccc(-c2ccccc2)c1)CS(=O)(=O)Cc1ccccc1 (stereo not drawn) | -0.214%
CCCCCCNC(=O)N[C@@H](CC1CCCCC1)C(=O)NCC#N | 2.86%
Cc1c(Cl)cccc1NC1=NC(=O)/C(=C2/C(=O)N(C)c3ccccc32)S1 | 21.7%
CC(C)C(O)(C#CCN1CCOCC1)C(C)C | -0.591%
Cc1cc2nc(SCC(=O)c3ccccc3)[nH]c2cc1C | 4.55%
COc1cc(O)ccc1C1CC(=O)Nc2c1c(=O)nc(SC)n2C (stereo not drawn) | 0.596%
O=C(CSc1nc2nncc-2c(O)n1-c1ccccc1)Nc1cccc(C(F)(F)F)c1 | -3.85%
O=C(NC1(C(F)(F)F)NC(=O)N(C2CCCCC2)C1=O)C1CCCCC1 (stereo not drawn) | -6.64%
CCCCOc1ccc(C2C(C#N)=C(N)Oc3[nH]nc(C)c32)cc1OC (stereo not drawn) | -0.941%
CC(C)CCNC(=O)Cc1c(C(=O)O)[nH]c2ccccc12 | 4.14%
COc1ccc(CC(=O)Nc2ccc(S(=O)(=O)Nc3nc(C)cc(C)n3)cc2)cc1 | 0.0451%
Cc1ccc(Nc2nc(-c3ccc(S(=O)(=O)N4CCCC4)cc3)cs2)cc1 | 0.98%
N#CC1=C(SCC(N)=O)NC(=O)CC1c1cccc2ccccc12 (stereo not drawn) | 2.58%
